Experimental data as given in ChEMBL document CHEMBL4888484, “Replenishing the malaria drug discovery pipeline: Screening and hit evaluation of the MMV Hit Generation Library 1 (HGL1) against asexual blood stage Plasmodium falciparum ,using a nano luciferase reporter read-out” (2022).
Hit rate of the full screen: of about 150,000 compounds, about 540 (0.36%) showed an effect of 50% or more. Some of the results follow.

system: Plasmodium falciparum; experiment: Primary screen in NF54 nanoGlo assay, in single point, at 2uM, 72h; a lower Z score goes with more inhibition; assay type: functional, Erythrocyte; conditions: timepoint 72 hour

Compound	% Inhibition [%]	Z score
COC(C)c1noc(CN(C)C(C)c2nnc(C)s2)n1 (configuration not stated)	-3	0.62
O=C(NCC1(c2ccsc2)CCOCC1)[C@H]1CCOC1	-13	1.92
O=C1[C@H]2[C@H](Cc3ccc(O)cc3)N[C@@]3(C(=O)Nc4ccc(Br)cc43)[C@H]2C(=O)N1CC1CCCO1 (some centres not stated)	16	-1.98
CC(C)NC(=O)C(C#N)C(=O)C1COc2ccc(Br)cc21 (configuration not stated)	-12	1.54
CC(=O)Nc1[nH]nc(-c2ccc(C)cc2)c1C	-5	0.73
CCC(CNCC1(O)CCOC1C)c1ccccc1 (configuration not stated)	-7	1.12
CCC(CC)[C@@H](O)CNC(=O)NC1CCC1	-11	1.74
CCc1ccnc(NC2CCN(C(C)=O)CC2)c1	-9	1.2
Cc1ccc(Cc2nc(CN(C(=O)OC(C)(C)C)C3CC3)no2)cn1	1	-0.18
c1cnc(N2CCC(c3nnc(NCc4cccs4)o3)CC2)nc1	-8	1.15
O=C(N[C@H]1CCOC12CCCC2)c1cc(F)cc2ccncc12	-7	1.29
Cn1cc(NCc2ccc3c(c2)OCO3)c(C(=O)Nc2cccc(Cl)c2)n1	4	-0.55
O=C(c1ccn(C(F)F)n1)N1C[C@@H]2CC[C@H]1CN(C1CCOCC1)C2	0	-0.03
CCOc1ccc(C(=O)N2CCN(c3cccnc3)C(=O)C2)cn1	14	-1.73
CN(Cc1ccccc1)C(=O)c1cn2c(n1)CCCC2	-5	0.82
CCN(CC)C(=O)c1ccc(-c2ccncc2)o1	1	-0.18
Cc1noc(C)c1S(=O)(=O)NC[C@H](C)Oc1cccc(CN(C)Cc2ccsc2)c1	-14	1.63
CC(C)COC[C@@H](O)CN1CCCN(c2ccc(NC(=O)c3ccc(F)cc3F)cn2)CC1	-5	0.96
Cc1ccnc(CC(=O)NC[C@@H](C(C)C)N(C)C)c1	2	-0.26
COCCN(CC(=O)N(Cc1ccc(C)cc1)C1CCN(C(=O)Cc2ccc(OC)cc2)CC1)S(=O)(=O)c1ccccc1	-3	0.59
CCc1csc(CNC(=O)c2ccc(N[C@@H](C)c3nc(C)no3)nc2)n1	-4	0.82
NC(=O)Cc1nc(Cc2n[nH]c3ccccc23)n(CCO)n1	-5	0.84

Compound	% Inhibition [%]	Z score
CC(C)=CCO[C@H]1CCOC[C@H]1NC(=O)Cc1cc(F)ccc1F	-17	1.6
O=S1(=O)C[C@H](N2CCN(c3ccccc3F)CC2)[C@@H](S(=O)(=O)c2cccs2)C1	-11	1.33
COc1ccc(CC(=O)N2CCC3(CC2)CN(C(C)=O)C[C@@H]3CO)cc1Cl	-12	2.27
COC(=O)[C@H](C)NC(=O)NC1CCCCC1	13	-1.5
O=S(=O)(Cc1ccccc1F)N1CCC[C@H](Oc2cnccn2)C1	-12	2.02
CCC1(CC)C(NCc2nnc3n2CCCCC3)CC1OC (configuration not stated)	0	-0.08
COCCC(=O)N1CCCCN(C)C(=O)[C@H](C)NC(=O)COc2ccc(cc2OC)C(=O)NCCC1	2	-0.24
COc1ccc(CN(CCC(C)C)C[C@H](O)COC(C)C)cc1OC	-3	0.37
CCn1nccc1S(=O)(=O)NCC1(CN2CCOCC2)CC1	-2	0.37
Cn1c(=O)n(C2CCN(C(=O)c3cccs3)CC2)c2ncncc21	-16	2.63
Cc1noc(C)c1C(=O)Nc1ccc2sncc2c1	-14	1.56
Cc1cnc2ccccc2c1NC(=O)COc1cccc(Cl)c1	-4	0.58
CCc1noc(C)c1C(=O)Nc1ncc(Cc2ccccc2)s1	-3	0.42
CCc1cc(C(=O)N[C@H]2CC(C)(C)Cc3c2cnn3-c2ccc(OC)cc2)[nH]n1	5	-0.75
c1ccc(Cn2ccnc2CCNc2ncccn2)cc1	33	-3.73
Cc1ccc(CN2CCCn3nc(CNC(=O)C4CCC4)cc3C2)c(F)c1	4	-0.37
CC(C)(C)C(=O)NCCc1ccc(F)cc1	-7	1.07
CCc1nsc(N2CCC[C@H](CO)C2)n1	-12	1.59
COc1cccc([C@@H]2CCCCN2C(=O)CCc2ccccn2)c1	3	-0.62
CCC(=O)C1C(=O)CC(C)(C)C(c2cc(C)no2)C1=O (configuration not stated)	-11	2.1
Cn1ncc2c(=O)n(Cc3cc(Cl)c4c(c3)OCCO4)cnc21	3	-0.37
Cc1cc(=O)n(CC(=O)Nc2ccc(C)c(F)c2)c(N(C)Cc2ccccc2)n1	-16	1.42

Compound	% Inhibition [%]	Z score
O=C(Nc1nccs1)c1c[nH]nc1-c1ccccc1	-1	0.18
NC(=O)c1cc(Cl)ccc1OCC(=O)Nc1ccnn1C1CCCC1	-2	0.2
CNC(=O)c1ccc(CN2CC(c3ccccc3)(c3ccccc3)CCC2=O)o1	-23	4.54
CC(C)N(Cc1nnsc1Cl)c1ccc(F)cc1	-11	0.91
COc1ccc(CN(C(=O)[C@@H]2CCCO2)C2CCCC2)cc1OC(C)C	-6	1.07
Cn1c(=O)[nH]c(=O)c2[nH]c(CCC(=O)NC3c4ccccc4CC3O)nc21 (configuration not stated)	-6	0.99
COCC(C)(C)c1noc(-c2ccc(C(F)(F)F)c(=O)[nH]2)n1	-6	0.62
CCC(CC)C(=O)N(CCN(C)C)Cc1cc(NC(=O)NC(C)C)ccc1N(C)C	5	-0.6
O=C(Nc1nccc2cc[nH]c12)C1CC[C@@H]2C[C@@H]2CC1 (some centres not stated)	-5	1.03
COc1ccc2c(c1)N(S(=O)(=O)Cc1ccc(F)cc1F)CCC2	-4	0.5
Cc1cccc2c1O[C@H](C(=O)Nc1cc(C3CC3)ccn1)C2	-2	0.37
CC(C)c1noc([C@H](C)NC(c2ccccc2)c2ccccc2)n1	1	-0.12
Cc1cccc2c1NC(=O)[C@]21CC(=O)Nc2c1cnn2C(C)(C)C	-14	1.68
CC(C)C(=O)N1CCN(c2ccc(-c3noc(C(F)(F)F)n3)cn2)CC1	-2	0.29
C[C@H](CC(=O)O)CC(=O)N1CCCCCC1	-1	0.15
COc1ccc(-c2cn(Cc3cnc(C)cn3)nn2)cc1Cn1cccn1	1	-0.05
COCCNCC#CCOc1ccc(OC)cc1	-13	1.62
Cc1cc(C(=O)N2CCOCC2)nn1CC(=O)NCc1c(F)cccc1F	-5	0.97
Cc1cccc(OCC(=O)N2CCC[C@H]2c2nnc(C(=O)Nc3ccc(F)cc3)s2)c1	0	-0.09
Cc1ccc(CC(=O)N2CCCO2)cn1	-1	0.07
CC(C)(C)OC(=O)N1CC(OC(=O)NC[C@H]2CCCO2)C1	4	-0.73
CN(CCc1ccccc1)[C@H]1CCCNC1	-2	0.31

Compound	% Inhibition [%]	Z score
CCC(C)C(NC(=O)c1ccco1)c1nc(-c2ccc3c(c2)OCO3)no1 (configuration not stated)	-10	1.95
OCc1ccccc1CNC(=NC1CC1)NCc1ccccc1	-3	0.45
CC(C)C(=O)N1CC[C@H](CC(=O)NCc2ccccc2)C1	38	-1
CNC(=O)c1nc(C(=O)NCc2ccco2)cs1	33	-4.82
Cc1ccc(NS(=O)(=O)c2cccc(N(C)C)c2)cn1	-10	0.97
CC(C)(C)n1nnc(C(=O)N(CC(F)F)c2ccc(F)cc2)n1	-7	0.99
Cc1ccc2c(=O)c(C(=O)N3CCCC3)cn(CC(=O)Nc3c(C)cccc3C)c2n1	1	-0.22
CCOC(=O)c1c(N2CCN(c3ccccc3)CC2)cc(C)nc1C	-14	1.82
Cc1ccc(-c2nc3nc(C)c(CC(=O)N4CCN(c5ccccc5)CC4)c(C)n3n2)cc1	-6	0.86
Cc1ccc(-n2nc(C(=O)N[C@@H](C)c3ccccc3)c(=O)n(Cc3cccc(F)c3)c2=O)cc1	-3	0.39
N#Cc1ccc(N[C@@H]2C=C[C@H](CO)C2)nc1	1	-0.11
CCCCN(CC)c1cc(Oc2ccc(F)cc2F)ncn1	-7	1.04
CN(Cc1nc2ccccc2c(=O)[nH]1)C(=O)[C@@H]1CCCCO1	10	-1.41
CCN1CCc2ccc(NC(=O)N3CCC[C@]3(C)CO)cc21	-15	2.06
CN(CCc1cccs1)S(=O)(=O)CCO[C@H]1CCOC1	-4	0.85
Cc1ccc(CN(Cc2ccco2)C(=O)Nc2ccccc2)o1	1	-0.21
CCC(=O)Nc1ccc(Cc2nc3cc(C(=O)N4CCC(C)CC4)ccc3[nH]2)cc1	-14	1.65
COc1cc(OC)cc(C(=O)N[C@@H](C)c2ccccc2)c1	-15	1.65
Nc1c(-c2ccc(F)c(F)c2)ncnc1N1CCCCC1	-2	0.23
O=C1[C@@H]2Cc3c([nH]c4ccccc34)CN2C(=O)CN1Cc1ccccc1Cl	-4	0.46
